# Data reported in ChEMBL document CHEMBL4888484, “Replenishing the malaria drug discovery pipeline: Screening and hit evaluation of the MMV Hit Generation Library 1 (HGL1) against asexual blood stage Plasmodium falciparum ,using a nano luciferase reporter read-out” (2022).
# Out of some 150,000 compounds screened, about 540 (0.36%) showed an effect of 50% or more. This is one part of the list.
# Test system: Plasmodium falciparum
# Experiment: Primary screen in NF54 nanoGlo assay, in single point, at 2uM, 72h; a lower Z score goes with more inhibition
# Assay type: functional, Erythrocyte
# Details: timepoint 72 hour
SMILES,% Inhibition [%],Z score
CC(=O)c1cccc(-n2ccnc2-c2cccc(CN(C)C)c2)c1,-8,1.43
Cc1cc(F)c2c(c1)CCCN2CC(=O)N1CCN(c2ccccc2F)CC1,10,-1.29
NC(=O)c1nnsc1NC(=O)Nc1ccccc1,-11,1.6
Clc1ccc2nc(Cn3cc(-c4cnc(-c5ccco5)nc4)nn3)[nH]c2c1,-1,0.1
Cc1nccn1Cc1ccccc1NC(=O)[C@H]1[C@@H]2C=C[C@@]3(CN(C)C(=O)[C@@H]13)O2,-11,1.25
CCc1nc(C(=O)NC2CCN(Cc3cnc(C)s3)CC2C)c[nH]1 (stereo not drawn),1,-0.16
CCc1oc(C(=O)Nc2sc(NC)nc2C(N)=O)cc1CN1CCCC1,-5,0.49
O=C(COc1ccc(S(=O)(=O)N2CCCCC2)cc1)N1CCCC1,-17,3.44
CCN(C(=O)C[C@H](C)S(=O)(=O)c1ccc2c(c1)NC(=O)CO2)c1ccc(OC)cc1,-13,1.64
O=c1c2ccccc2nnn1C[C@H]1CC[C@H](C(=O)N2CCCCC2)CC1,-9,1.7
CCn1cc(CN(C)c2nc(C(C)C)ccc2C#N)c(C)n1,-22,3.78
C#CCNC(=O)CCNc1ccc(Br)cn1,-2,0.24
O=C(Nc1nnc(C2CC2)s1)N1CCCCCCC1,-3,0.63
Cc1cccc(N(C)C(=O)c2nc3ncc(Br)cn3n2)c1C,-13,1.29
O=C(C[C@H]1C(=O)Nc2ccccc2N1C(=O)c1ccc(Br)cc1)Nc1cccc(Cl)c1,-11,2.02
O=C(c1ccc(F)cc1)N1CCN(c2nc(Cc3ccccc3)nc3cc(Cl)ccc23)CC1,-9,1.37
Nc1c2c(nc3c1cnn3-c1cc(F)cc(F)c1)CCCC2=O,-9,1.23
CCCCNC(=O)c1n[nH]c2c1CN(C(=O)c1cccc(OC)c1)CC2,-8,0.89
Cc1ccc(CCCC(=O)N2CCC[C@@H]2C(=O)O)cc1,-8,1.22
CCC[C@H]1CN(C(=O)c2cccc3cn[nH]c23)CCN1CCOC,4,-0.6
COc1ccc(NC(=O)N2CCn3ncnc3C2)cc1NC(=O)C1CCCCC1,-19,1.88
Cc1ccc2nc(N(C)Cc3ccn[nH]3)c(CN(C[C@H]3CCCO3)C(=O)c3ccccc3F)cc2c1,11,-1.56
CCOc1ccc(S(=O)(=O)N2C3CCC2CC(n2nccn2)C3)cc1F (stereo not drawn),-5,0.72
Cc1cc(C)nc(CCn2cnc(-c3ccccc3)c2-c2cnn(C(C)C)c2)n1,-1,0.24
CN(Cc1cc(CN2CCCCC2)cs1)C1CCS(=O)(=O)CC1,-3,0.37
CCCNc1ccc(C#N)cc1NC(=O)C1=CCCCO1,29,-3.28
CNC(N)=NCc1oc2ccc(F)cc2c1C,-7,1.03

SMILES,% Inhibition [%],Z score
O=C1c2cccnc2CN1Cc1ccc(C(F)(F)F)nc1,-18,1.67
CCc1cccc(C)c1N(CCn1nnc2ccccc21)[C@@H](C)COC,32,-3.64
CCC1(CNC(=O)NCCCn2cc(C)cn2)CCC1,-8,0.83
O=C(O)c1cccnc1CN(Cc1ccccc1)[C@H]1CCCC[C@@H]1O,0,0.02
Cc1n[nH]c(C(C)NC(C)c2cccc(C)c2C)n1 (stereo not drawn),-6,0.89
C[C@@H](c1nc(Cc2cccs2)nn1CCO)N1CCCCCC1,-3,0.52
NC(=O)Cn1cnc2cc3c(cc21)OCCO3,-5,0.46
Cc1n[nH]c(C)c1CC(=O)NCCc1nc(C2CC2)no1,1,-0.18
CCOc1ccc(NC(=O)Cn2ncn3nc4c(c3c2=O)CCCC4)cc1,-6,0.8
CCc1noc(CCCC(=O)N[C@@H]2CCC[C@@H]2n2ccnc2)n1,-7,1.35
CCn1nc(C)c(CN2CCn3nc([C@@H](O)CC(=O)N(C)C)cc3C2)c1C,-7,0.92
C[C@H]1CC2(CCNCC2)CN1C(=O)c1cc2ccccc2n1C,-4,0.71
Cc1noc([C@@H]2CN(C(=O)NCCc3cccc(C(F)(F)F)n3)C[C@H](C)O2)n1,-7,0.75
O=C(NCCc1c[nH]cn1)c1ccc2c(c1)n(CC1CC1)c(=O)n2C1CCCCC1,24,-3.88
CCOC(=O)c1cc(CN2CCC(C)(C)S(=O)(=O)CC2)on1,-3,0.46
CCc1ccc([C@@H]2CCCCN2C(=O)c2cnn(C)c2OC)o1,-10,1.58
CC(C)N1CCC[C@H](N2CCC(Cc3nccn3C)CC2)C1=O,-2,0.33
CC(CNC(=O)NC(C)c1nc(C2CCCC2)no1)c1nccs1 (stereo not drawn),4,-0.37
CCNC(=NCc1cc(C)cc(OC)c1)NCC,-15,1.4
COc1ccc(-c2noc(-c3ccc(-c4ccc(O)cc4)nc3)n2)cc1,-7,1.29
CCC[C@@]1(C)C(=O)NCCN1Cc1nnc(-c2ccc(Cl)cc2)n1C,32,-4.29
CCN(CC)C(=O)c1c(Cl)c(OC)cc(OC)c1Cl,-10,1.06
CC(C)c1nc(CC(=O)N(C)Cc2ccsc2)cs1,-6,0.92
Cc1cccc(NC(=O)NCCn2nnc3cc(S(=O)(=O)N(C)C)ccc32)c1C,33,-3.74
CC(C)OCCS(=O)(=O)N[C@H](c1cccc(C(F)(F)F)c1)c1nnc[nH]1,-9,1
Cc1c(-c2nc([C@H]3CCOC3)no2)[nH]c2ccc(F)cc12,-3,0.55
CN(C[C@H]1COCCO1)C(=O)c1cccc(-c2ccc(NC3CC3)nn2)c1,-1,0.14
